The DeepSol protein solubility set

Assay: soluble on expression in E. coli; label from the status in PepcDB or PDB records

Sequence	soluble on expression in E. coli
MDCSTNISPKQGLDKAKYFSGKWYVTHFLDKDPQVTDQYCSSFTPRESDGTVKEALYHYNANKKTSFYNIGEGKLESSGLQYTAKYKTVDKKKAVLKEADEKNSYTLTVLEADDSSALVHICLREGSKDLGDLYTVLTHQKDAEPSAKVKSAVTQAGLQLSQFVGTKDLGCQYDDQFTSL	soluble
VVGGTEAQRNSWPSQISLQYRSGSSWAHTCGGTLIRQNWVMTAAHCVDRELTFRVVVGEHNLNQNDGTEQYVGVQKIVVHPYWNTDDVAAGYDIALLRLAQSVTLNSYVQLGVLPRAGTILANNSPCYITGWGLTRTNGQLAQTLQQAYLPTVDYAICSSSSYWGSTVKNSMVCAGGDGVRSGCQGDSGGPLHCLVNGQYAVHGVTSFVSRLGCNVTRKPTVFTRVSAYISWINNVIASN	soluble
